Hit rate of the full screen: of about 150,000 compounds, about 540 (0.36%) showed an effect of 50% or more. The list shows a part of the results.

The subject of this assay is Plasmodium falciparum. Kind of assay: Primary screen in NF54 nanoGlo assay, in single point, at 2uM, 72h; a lower Z score goes with more inhibition. Format: functional, Erythrocyte. As to conditions: timepoint 72 hour.
On to `COc1ccccc1N1CCN(C(=O)CN(C)c2ccccc2)CC1`, for which the “% Inhibition” value was found to be 1% and the Z score is -0.14.
Take `O=C1C[C@H]2CC(c3nc(-c4cc(F)cc(Br)c4)no3)[C@@H]1C2` (stereo not given in full): the “% Inhibition” value is 5% and the Z score was -0.89.
Take `CCc1cccc(NC(=O)[C@@H]2Cn3cccc3C(=O)N2)c1`: the “% Inhibition” value amounted to 2% and the Z score is reported as -0.27.
The like results for `CCCN1C(=O)c2ccccc2N2C(=O)CC[C@@]12C(=O)Nc1ccccc1` were, in that order, 88% and -14.36.
The like results for `Cc1cc(-c2nc(-c3c(C)noc3C)cs2)ccc1F` were, in that order, 3% and -0.51.
In the case of `Cc1ccoc1C(=O)NC1CCN(CC2(O)CCC(C)CC2)CC1` (stereo not given), the “% Inhibition” value is recorded as -21% and the Z score came to 3.86.
In the same order, the values of `COCCCn1c(C(=O)NC(C)C)nnc1N1CC[C@@H](OC)C1` are -4% and 0.55.
The like results for `O=S(=O)(N[C@H]1CCN(Cc2ccccc2)C1)N1CCOCC1` were, in that order, 2% and -0.18.
`O=C(c1nc2ccccc2[nH]1)N1CCC(c2nccn2Cc2ccccc2)CC1`: the “% Inhibition” value is given as -7% and the Z score came out at 0.91.
In the same order, the values of `COc1ccc(NC(=O)C2C3NC(=O)NC2(C)Oc2ccc(Cl)cc23)cc1` (stereo not given) are -11% and 2.04.
In the same order, the values of `CC(C)(Cc1ccc(O)cc1)C(=O)NCc1ccc2[nH]cnc2c1` are 10% and -1.15.
The like results for `C#CCNS(=O)(=O)N1CCN(Cc2ccc3ncccc3c2)CC1` were, in that order, 1% and -0.15.
As to `CC(O)C1CN(C(=O)Nc2nc(C3CC4CCC3C4)cs2)CCO1` (stereo not given), the “% Inhibition” value was determined as 9% and the Z score is listed as -1.18.
In the case of `Cc1onc(N)c1S(=O)(=O)NC1CCCCC1`, the “% Inhibition” value is listed as -18% and the Z score was 1.56.
In the same order, the values of `CS(=O)(=O)N1CCN(C(=O)NCCn2cc(-c3ccoc3)cn2)C1=O` are -12% and 2.34.
In the case of `CCC(=O)Nc1ccc(Oc2c(C)c(C(=O)O)nn2-c2ccccc2CC)c(S(=O)(=O)NCC(C)C)c1`, the “% Inhibition” value is listed as 97% and the Z score is given as -9.77.
In the same order, the values of `O=C(Nc1ccccc1F)N[C@@H]1C[C@H]1CO` are -18% and 1.84.
In the same order, the values of `CCc1nc(CNC(=O)c2cc(C(F)F)nn2C)cs1` are 3% and -0.51.
In the same order, the values of `Cc1cc(NC(=O)Cn2ccc(-c3c(C)nn(C)c3C)n2)n(C)n1` are -6% and 0.72.
Take `CCN(CC)CCN(CC)C(=O)c1cccc(-c2ccc(C)nc2N)c1`: the “% Inhibition” value was -7% and the Z score stood at 0.71.
In the same order, the values of `CNC(=O)Cc1noc(-c2cc(C)oc2C)n1` are -2% and 0.18.
With `Cc1nc(N)ncc1C(=O)N[C@H]1COCC[C@@H]1OCc1ccccn1`, the “% Inhibition” value was -8% and the Z score came out at 1.32.
The like results for `Cc1cc(C)cc(NC(=O)C2CCN(C(=O)c3nnn4cc(C)[nH]c(=O)c34)CC2)c1` were, in that order, -5% and 1.01.
In the same order, the values of `Cc1noc(C)c1CN(C)C(=O)N[C@@H](C)c1ccc(F)cc1` are -15% and 1.31.
The like results for `COCc1nc(OC)cc(N2CCC(C(N)=O)(c3ccccc3)CC2)n1` were, in that order, 1% and -0.09.
As to `CCc1cc2c(cc1[C@@H](O)C[n+]1ccccc1)C(C)(C)CCC2(C)C`, the “% Inhibition” value was 35% and the Z score is reported as -3.93.
In the case of `COCCN1CC2(CCC1=O)CCN(Cc1nncn1C(C)C)CC2`, the “% Inhibition” value is on record as -2% and the Z score worked out at 0.33.
The like results for `O=C(O)[C@H]1c2nc[nH]c2CCN1Cc1cnc(NCc2ccccc2)nc1` were, in that order, 5% and -0.56.
In the same order, the values of `O=C(c1ccc2[nH]ccc2c1)N1C2CCC1CC(=C1CC1)C2` are 11% and -1.5.
In the same order, the values of `CC(C)C[C@H](N)C(=O)N(C)Cc1ccccc1` are -12% and 1.57.
For `CCC1(CNC(=O)NC2CC3CCC2O3)CC1` (stereo not given), the “% Inhibition” value is reported as -8% and the Z score was 0.88.
In the same order, the values of `O=S(=O)(NC1C2Cc3ccccc3C21)c1ccc2c(c1)OCCO2` (stereo not given) are -2% and 0.32.
On to `C[C@@]1(C(=O)NC2CCCC2)CCC(=O)N1Cc1cccc(Br)c1`, for which the “% Inhibition” value is -2% and the Z score came out at 0.18.
In the same order, the values of `CCCCC1CCC(c2nc(N)n[nH]2)CC1` (stereo not given) are -8% and 1.09.
In the same order, the values of `CCn1nc(C)c(-c2ccc(N(C)C)nc2)c1C` are -6% and 1.2.
In the same order, the values of `O=C(O)c1cccc(C(=O)N2CCn3cc(C(=O)Nc4ccccc4)nc3[C@H]2c2ccccc2)c1` are -15% and 2.26.
In the case of `O=C(Cc1csc(Cc2cccc(Cl)c2)n1)Nc1ccc(N2CCOCC2)nc1`, the “% Inhibition” value is on record as -6% and the Z score was found to be 0.85.
The like results for `Cc1ccc(N2CCC(NCCCn3cccn3)CC2)cc1Cl` were, in that order, -5% and 0.81.
In the same order, the values of `O=C(COc1ccccc1-c1nnc(-c2ccccc2)o1)Nc1ccc(Cl)cc1F` are -10% and 1.1.
In the same order, the values of `Cc1c(C)[n+]([O-])c([C@@H](c2ccccc2OCC(=O)O)C2C(=O)OC(C)(C)OC2=O)n1Cc1ccccc1` are -5% and 0.67.
For `COc1ccc(-c2ccc3nc(-c4cc(C)ccc4C)oc3c2)c(OC)c1OC`, the “% Inhibition” value is recorded as 1% and the Z score is -0.25.
In the same order, the values of `Cc1cccc(C[C@H](C)NS(C)(=O)=O)n1` are -12% and 1.15.
In the same order, the values of `COc1ccc(Oc2cc(CNC(=O)N[C@@H](C)c3c(C)nn(C)c3C)ccn2)cc1` are 8% and -1.08.
The like results for `CCc1[nH]nc(-c2ccsc2)c1NC(=O)c1ccccc1` were, in that order, -11% and 1.86.
In the case of `COc1ccc(Cn2c(C)cnc2[C@@H]2CCCN2Cc2cnn(C)c2)cc1`, the “% Inhibition” value is -11% and the Z score is 1.41.
The like results for `CCN1CCN(CC(=O)N2N=C(c3ccc(C)c(C)c3)C[C@H]2c2ccccc2OC)CC1` were, in that order, -8% and 1.28.
In the same order, the values of `O=C([C@@H]1CCCCN1c1cc(C(F)(F)F)nc(-c2ccncc2)n1)N1CCOCC1` are 1% and -0.23.
The like results for `CCN(CC)c1cc(CCC(=O)NC)ccn1` were, in that order, -9% and 1.1.
`Cc1nnsc1CNC(=O)N1CCn2nc(C#N)cc2C1`: the “% Inhibition” value was -3% and the Z score worked out at 0.31.
The like results for `O=C(Cn1c(=O)n(Cc2cccc(Cl)c2)c(=O)c2ccccc21)Nc1ccc2c(c1)CCC2` were, in that order, -4% and 0.62.
For the compound `CCC(C)CC(=O)NC(CO)c1cc(F)c(F)c(F)c1` (stereo not given), the “% Inhibition” value is -3% and the Z score came to 0.3.
In the same order, the values of `CNC(=O)C(c1ccccc1)C(C(=O)NC)c1cccc2ccccc12` (stereo not given) are 36% and -5.25.
In the same order, the values of `Cn1c(C(=O)NCCc2ccccn2)cc2ccc(Cl)cc21` are -5% and 0.68.
In the same order, the values of `CC(C)(Cc1ccc(C(F)(F)F)cc1)C(=O)NCC#N` are -17% and 1.71.
Turning to `O=C1OC2(CCN(C[C@H]3COCCO3)CC2)CN1CCOc1ccccc1`, the “% Inhibition” value is on record as -2% and the Z score stood at 0.15.
As to `COc1ncc(CCNC(=O)[C@]2(C)CCOc3ccccc32)cn1`, the “% Inhibition” value is -8% and the Z score is on record as 1.47.
With `CC1CCCC(NC(=O)CN2CCC(O)(C(F)(F)F)C2)C1C` (stereo not given), the “% Inhibition” value is -27% and the Z score is 3.99.
In the case of `O=C(NCc1ccc(-c2cccc(Cl)c2)o1)N1CCN(CCO)CC1`, the “% Inhibition” value is recorded as -13% and the Z score is reported as 1.17.
In the same order, the values of `COc1ccc(-c2cc(C(=O)Nc3ccncc3)c3ccccc3n2)c(OC)c1` are 2% and -0.25.
In the same order, the values of `CC(C)(C(=O)O)c1cccc(C(F)(F)F)n1` are -17% and 2.43.
The like results for `C[C@H]1CCCN(Cc2ccc(NC(=O)Cn3ccc(=O)[nH]c3=O)cc2)C1` were, in that order, -2% and 0.24.
As for `O=C(O)c1cc(-c2c[nH]c3ccc(Cl)cc23)[nH]n1`, the “% Inhibition” value is on record as -17% and the Z score worked out at 2.06.
In the same order, the values of `C[C@@]1(C(=O)Nc2ccc(C(=O)N3CCOCC3)c(F)c2)CCCc2ccccc21` are -9% and 1.07.
For the compound `Cn1cc(C(=O)NC[C@H](O)c2ccc(-c3cccs3)s2)nn1`, the “% Inhibition” value is 17% and the Z score is given as -2.28.
The like results for `O=C(NCc1ccc(F)cc1Br)N[C@H]1CCCOC1` were, in that order, -2% and 0.29.
With `O=S(=O)(Nc1cnc(Oc2ccccc2)nc1)c1ccccc1F`, the “% Inhibition” value is -13% and the Z score is 2.41.
In the same order, the values of `Nc1ncc(S(=O)(=O)NCc2cccs2)cn1` are -13% and 1.65.
The like results for `O=C(c1ccncc1F)N1CC(OC[C@H]2CCOC2)C1` were, in that order, 12% and -1.61.
In the same order, the values of `O=C(CN1C(=O)COc2ccc(Cl)cc21)Nc1ccccc1-c1ccccc1` are -5% and 0.69.
Turning to `COc1ccc2nc(NC(=O)c3nn(-c4ccccc4OC)c(=O)c4ccccc34)sc2c1`, the “% Inhibition” value is given as -9% and the Z score is 1.37.
In the same order, the values of `c1cc([C@@H]2CCCCO2)oc1CN1CCc2nocc2C1` are -7% and 0.86.
Take `CC1C(N2CCCC2)CCN1C(=O)CCc1ccc2c(c1)OCCO2` (stereo not given): the “% Inhibition” value came to 1% and the Z score was -0.21.
The like results for `CC(C)Cc1nc(-c2cccc(-c3cn[nH]c3)c2)n(CCO)n1` were, in that order, 0% and 0.02.
For the compound `CC(C)(NC(=O)c1cnc(-c2ncccn2)s1)c1nnn[nH]1`, the “% Inhibition” value is 4% and the Z score is listed as -0.55.
In the same order, the values of `CC(=O)N1CCN(C[C@@H]2OC[C@H](NC(=O)c3ccccc3)[C@H]2O)CC1` are 0% and -0.02.
Take `N#CCCN(CC(F)(F)F)S(=O)(=O)c1cnn2ccccc12`: the “% Inhibition” value was -6% and the Z score was found to be 1.14.
Take `Cc1cc(CN2Cc3c[nH]nc3[C@@H](C)C2)nc(C)n1`: the “% Inhibition” value is on record as -6% and the Z score is 0.66.
In the same order, the values of `CN(C)S(=O)(=O)N[C@H]1CCOC[C@@H]1Oc1ccc(CO)cc1` are 1% and -0.12.
The like results for `COc1cccc(C(=O)N2CCN(C(=O)C[C@H](C)n3cccn3)CC2)c1` were, in that order, -20% and 2.1.
With `CC[C@@H](CO)N(Cc1cccnc1)C(=O)Cc1ncccc1C`, the “% Inhibition” value was -3% and the Z score is on record as 0.5.
`Cc1nn(C)c(C)c1CCCNC(=O)c1cnc2c(cnn2C)c1O`: the “% Inhibition” value is 25% and the Z score was -2.84.
In the same order, the values of `CCCN1CCc2nc(-c3ccccc3)n(CC(=O)Nc3cc(C)ccc3OC)c(=O)c2C1` are -12% and 1.57.
For `CC(C)Oc1cccc(C=Cc2nc(=O)cc[nH]2)c1`, the “% Inhibition” value was -9% and the Z score was determined as 1.26.
As to `CC(=O)N1CCCC[C@H]1C1=CCCN(CCc2ccccn2)C1`, the “% Inhibition” value worked out at 2% and the Z score is recorded as -0.4.
With `Cc1nc2c(c(N[C@H]3C[C@@H](c4cc(=O)[nH]c(N(C)C)n4)C3)n1)CCC2`, the “% Inhibition” value was 16% and the Z score is listed as -2.09.

By % Inhibition is commonly meant the relative decrease from the control value, in per cent.

(Values after ChEMBL document CHEMBL4888484, “Replenishing the malaria drug discovery pipeline: Screening and hit evaluation of the MMV Hit Generation Library 1 (HGL1) against asexual blood stage Plasmodium falciparum ,using a nano luciferase reporter read-out” (2022).)
